The supplement of paper PMC12217912
This is one part of the list. The full chains were built here from the parent and the listed change. Inactive controls read about 0.05.

B1: TEV protease; numbered along this chain (parent)
chain: MGESLFKGPRDYNPISSSICHLTNESDGHTTSLYGIGFGPFIITNKHLFRRNNGTLVVQSLHGVFKVKDTTTLQQHLVDGRDMIIIRMPKDFPPFPQKLKFREPQREERICLVTTNFQTKSMSSMVSDTSCTFPSGDGIFWKHWIQTKDGQCGSPLVSTRDGFIVGIHSASNFTNTNNYFTSVPKNFMELLTNQEAQQWVSGWRLNADSVLWGGHKVFMVKPEEPFQPVKEATQL

Variants of: B1
Experiment: raw area under fraction-flipped curve 0-4 h after induction (AUC4h, not background-subtracted), DNA-recorder readout of cleavage of the substrate (dimensionless); higher = more cleavage of the substrate by the protease variant
Settings: temperature: 34 °C; time window: 0-4 h after rhamnose induction
Experimental: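 In vivo DNA recorder in E. coli TOP10(DE3) ΔrhaA at 34 °C. Each TEVp single-site mutant (parent TEVp 0) is paired with a single-site variant of the 7-mer TEVs (canonical ENLYFQ|S). The substrate sits between flexible linkers in a Bxb1-sfGFP-TEVs-SsrA fusion, so cleavage stabilises Bxb1 and speeds flipping of a recombination array, read by NGS. The value is the raw area under the fraction-flipped curve over 0-4 h after rhamnose induction (AUC4h), with ≥20 reads per time point. It is not background-subtracted; inactive controls average about 0.047.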
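Note: Bxb1 expression induced with 0.2% (w/v) L-rhamnose at OD600 near 0.5, cultures sampled hourly, flipped fraction per protease–substrate barcode pair counted by paired-end Illumina sequencing.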

Variant | area with substrate ENLYFAS | area with substrate ENLYFDS | area with substrate ENLYFES | area with substrate ENLYFFS | area with substrate ENLYFGS | area with substrate ENLYFHS | area with substrate ENLYFIS | area with substrate ENLYFKS | area with substrate ENLYFLS | area with substrate ENLYFMS | area with substrate ENLYFNS | area with substrate ENLYFPS | area with substrate ENLYFRS | area with substrate ENLYFSS | area with substrate ENLYFTS | area with substrate ENLYFVS | area with substrate ENLYFWS | area with substrate ENLYFYS | area with substrate ENLYFCS
T192M | 0.0588 | 0.0486 | 0.0586 | 0.0676 | 0.0496 | 0.0603 | 0.0566 | 0.0781 | 0.0837 | 0.0818 | 0.0739 | 0.0541 | 0.0617 | 0.0523 | 0.0501 | 0.0398 | 0.0509 | 0.0437 | 
E195K | 0.0616 | 0.0573 | 0.0678 | 0.0671 |  | 0.0679 | 0.065 | 0.0538 | 0.0584 | 0.0672 | 0.0587 | 0.0656 | 0.067 | 0.0477 | 0.063 | 0.0618 | 0.067 | 0.0559 | 0.055
Q197D | 0.0583 |  | 0.066 | 0.0723 |  | 0.0626 | 0.0504 |  |  | 0.0627 | 0.0567 | 0.0733 | 0.0505 | 0.0648 |  | 0.0806 | 0.0769 | 0.0611 | 0.0475
W199E | 0.0493 |  | 0.0677 | 0.0772 | 0.0646 | 0.0541 | 0.0586 | 0.0859 |  | 0.0566 |  | 0.0642 | 0.0676 | 0.0671 | 0.0718 | 0.0561 | 0.0525 |  | 0.0596
W199N | 0.0599 | 0.0507 | 0.0545 | 0.0673 |  |  | 0.0579 | 0.0687 |  | 0.0551 |  | 0.0704 |  |  | 0.055 |  | 0.057 |  | 0.0674
S201R | 0.0566 |  | 0.0533 |  |  | 0.109 | 0.0631 | 0.0697 |  |  | 0.0265 | 0.0549 | 0.0625 | 0.0876 | 0.0519 |  |  | 0.0228 | 0.0719
W203G | 0.0471 | 0.0667 | 0.0649 | 0.0682 |  | 0.061 | 0.0494 | 0.0551 | 0.0533 | 0.0657 | 0.0549 | 0.0737 | 0.0459 |  | 0.0486 | 0.0491 | 0.0413 |  | 0.0523
R204F | 0.066 | 0.0558 | 0.074 | 0.0852 | 0.0641 | 0.0613 | 0.0544 | 0.0589 | 0.0638 | 0.0676 | 0.0637 | 0.0642 | 0.0609 | 0.0482 | 0.0587 | 0.0646 | 0.0529 | 0.057 | 0.0617
R204L | 0.0479 | 0.0545 | 0.0699 | 0.0633 | 0.0563 | 0.0542 | 0.054 | 0.0584 | 0.0555 | 0.0611 | 0.0573 | 0.0591 | 0.0728 | 0.0489 | 0.0949 | 0.0467 | 0.064 | 0.054 | 0.0518
L205G | 0.0514 | 0.0399 | 0.0555 | 0.0687 | 0.0419 |  | 0.0542 |  | 0.0668 | 0.067 | 0.0557 | 0.0545 |  | 0.0675 | 0.0665 |  | 0.0592 |  | 
L205M | 0.0597 | 0.0191 | 0.0335 | 0.0627 | 0.049 | 0.0624 | 0.0568 | 0.0618 | 0.0653 | 0.0873 | 0.076 | 0.0541 | 0.0512 | 0.0639 | 0.0587 | 0.0454 | 0.0555 | 0.0541 | 0.0623
